For 22 molecules, binding signal results are on record in PMC12136788.

The chains are these.
T1: UNK ZnF1-3 (human, UniProt Q9C0B0 31-174)
T1 sequence: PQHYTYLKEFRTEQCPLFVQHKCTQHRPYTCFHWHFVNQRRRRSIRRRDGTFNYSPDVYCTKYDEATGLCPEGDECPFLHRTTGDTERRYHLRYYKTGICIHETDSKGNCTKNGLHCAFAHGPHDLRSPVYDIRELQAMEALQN

B1: chr7:56126341:56126342:+_ENSG00000146731_ENST00000540286|hu_mus|hu_hu_hu_mus_True|68_98 (ssRNA)
RNA: GGGAGUUCUACAGUCCGACGAUCCAUGUUUCUCCUCUUAGCUCUGCGCAGAGCUACGAUCCCUUCUUUUGAAAGAGCAUCUAAGGAAAAGGGGUCAAUCCCCUUUUGAUUAAUAACGACAAAUCCUUUAUCUGAGUCACCACACAACAGAGGAUUGAGCAUCA
B2: chr7:141441981:141441982:+_ENSG00000106028_ENST00000265304|hu_mus|hu_hu_hu_mus_False|28_78 (ssRNA)
RNA: GGGAGUUCUACAGUCCGACGAUCCUCAUGUCUUACAAACUGACGAAAUACCUGUAAUACAGGUCUUCGAAACAUGGCUUCUGUUUUUCUUACAACCUAAUCUUUAGUUAGGCUUUUAAGGAAAGAAAGAAAAGAGAAAAAUGACAACAGAGGAUUGAGCAUCA
B3: chr1:137281999:137282000:-_ENSMUSG00000041879_ENSMUST00000161189|mus_mus|FALSE|FALSE (ssRNA)
RNA: GGGAGUUCUACAGUCCGACGAUCUUAGAUGCCGAUAGUCUGUAGGACCCGCCUCUCGUUGUCGUUAAGGUGGCAUGAAAACAUUAUGUAACAGGGCUGCUGAGCAAACUGGCAAAGGAAGUCUGUGAGAUACGCCUGCAGAUCCAACAGAGGAUUGAGCAUCA
B4: chr7:75932113:75932114:+_ENSG00000106211_ENST00000248553|hu_hu|hu_hu_hu_mus_False|48_58 (ssRNA)
RNA: GGGAGUUCUACAGUCCGACGAUCCUGCGACCACUCAUCGGGCAACCGGGGCACCCCGAAAGCUUGAUCGAAGAGGCGGCUAUGCGGGUACCAGUCGUCCCGGAAUGGUUCCCAGCUCGGGCUCCGCAGCAGCGAGAAGGGCACCAACAGAGGAUUGAGCAUCA
B5: chr19:41288738:41288739:-_ENSMUSG00000025016_ENSMUST00000025989|mus_hu|motif|central (ssRNA)
RNA: GGGAGUUCUACAGUCCGACGAUCAACUUGGGGGGAAAAAAGAUAAUCACUUUAGACAUUCAGUUAAAAUGUAGUUUAUCGGAAUCUCAAAAUGUUUAAUAAAAACAAGUAUCUUCUCCAUUUAACACUUUGCUUUCUAACUGUCAACAGAGGAUUGAGCAUCA
B6: 38682815_38682935_5030_CDS_ENSG00000105738_ENST00000222345|human|control|control (ssRNA)
RNA: GGGAGUUCUACAGUCCGACGAUCCUGCUCUGGCCCCAGGUUGUCCAUGAUGAUGAGUUUCUUCAGGUCAUCCUCGAUGGUGGAUUUGUAGUUCUUCCGUGGUGACCGGAGGUCUCGGAGGGAUGCCCUCAACCUCGGUUGCCCCAACAGAGGAUUGAGCAUCA
B7: 60086205_60090372_1448_CDS_ENSMUSG00000020986_ENSMUST00000021375|mouse|control|control (ssRNA)
RNA: GGGAGUUCUACAGUCCGACGAUCCUCAUUUUCAGACACGCAAGGUCCUUUUGAAUUAAGAGACACACAGGGUCCAAUAGCUCCUGAAAUCUUUAUUUCCCUUGAAGUCUUUAUUUCUAAUGUGCCACCAAAGCCCAUUUUAAACAACAGAGGAUUGAGCAUCA
B8: 8934024_8936927_1313_CDS_ENSG00000134313_ENST00000427284|human|control|control (ssRNA)
RNA: GGGAGUUCUACAGUCCGACGAUCAAGUAAUCGCCCAUCUUUGGGAUUUCUUAAAAGCAGUUCUGCCAGUUUCCGGCUCCUUCCACGAAUAGCAAUAUGCAAGGGAGUAUCUCCUUUCUUAUCUACAGCAGACACUUUAGCACCCAACAGAGGAUUGAGCAUCA
B9: chr19:16212804:16212805:+_ENSG00000167460_ENST00000300933|hu_mus|hu_hu_hu_mus_False|8_8 (ssRNA)
RNA: GGGAGUUCUACAGUCCGACGAUCAACAAUUCUGGAGUGAAGGAAAGAUGUAACAUGGAACAGCAUUAAAGCUCAGUCAGAAGGCACAUGGGCAACAAUGAUCACCCCAGCAUUCUCGCUUGGAAUGUGCUUGAGAAAUCUGUUCAACAGAGGAUUGAGCAUCA
B10: chr5:22955990:22955991:+_ENSMUSG00000029004_ENSMUST00000094962|mus_mus|FALSE|FALSE (ssRNA)
RNA: GGGAGUUCUACAGUCCGACGAUCUGCAUUGGUAUCCAAAAUACUGGGGCAUGCCAGCCACAGUGCUCAUUGCAAACAUCUAAGUGCAUCCACAAACCCUGUGAUGGUCACACACCAGACACCCGAACCCUGUUAUCGGCUCGACAACAGAGGAUUGAGCAUCA
B11: chr7:151048522:151048523:+_ENSG00000013374_ENST00000566856|hu_mus|hu_hu_hu_mus_True|1_18 (ssRNA)
RNA: GGGAGUUCUACAGUCCGACGAUCCUGUUUCUUAUUUAUUACGAUCUUGAUGUAAUUUUCUUGAAAUCCGAAAGUUUCAGCUAUUUGACACCUCAGGUCUCUACCAGUGACAUGCAAUCGGGUCUCCAACAAGCUUUUCCUAUCCAACAGAGGAUUGAGCAUCA
B12: chr14:66974463:66974464:+_ENSMUSG00000022044_ENSMUST00000074523|mus_hu|mus_mus_mus_hu_False|58_78 (ssRNA)
RNA: GGGAGUUCUACAGUCCGACGAUCUUGUAGGACGACUUAUUCAGGGGAUCGGCCAGGAAGCAAGAGCAGAACAAGGACACUAGUGGGAGCUCCUUCAUCUUCUCUUUGUAGGCAGCAAGGGUCAUGUUUCUGGGAUCUGGUGGCCAACAGAGGAUUGAGCAUCA
B13: chr2:25130317:25130318:+_ENSMUSG00000026965_ENSMUST00000028341|mus_mus|FALSE|FALSE (ssRNA)
RNA: GGGAGUUCUACAGUCCGACGAUCGGAGUCUGGAAAGUCUCGGAUGAUGCUGAAAAGCUCCUCGAUGCGUAGGGUGGCAUAGAUACGGUAGAAGAAUCUCUGUACGUGGCAGCGCCAACGACGCAGUGUGUUCCCAGCUUCUGGCAACAGAGGAUUGAGCAUCA
B14: 86257456_86258509_4960_CDS_ENSG00000068654_ENST00000263857|human|control|control (ssRNA)
RNA: GGGAGUUCUACAGUCCGACGAUCCAAAGAUACUACCAGGGAGCUCAUGUCAAAGUUGAUCUUCAUCAGAGGGAGCUUCACUGUCACCUGGCACCACAGGCUCUCCUCGGUGUCGUACUGGUAGUCAUCUAUGAACGGGUGGAUCAACAGAGGAUUGAGCAUCA
B15: chr12:85018817:85018818:+_ENSMUSG00000010608_ENSMUST00000048155|mus_hu|motif|central (ssRNA)
RNA: GGGAGUUCUACAGUCCGACGAUCUUCUGCUUCUUCAUCAAGUACCAUGGCAACAUCAUCUAAAAUGCUCUGGGGUGAACGGUGAGCCAUAACCUUAGAACAAACAAAAUCAACUAAUGUAGCUUCUUCUUCACCUAUAUAUUCCAACAGAGGAUUGAGCAUCA
B16: chr9:99427540:99427541:-_ENSMUSG00000032468_ENSMUST00000035043|mus_hu|motif|central (ssRNA)
RNA: GGGAGUUCUACAGUCCGACGAUCUUCUCCAUCAACCAAAACAUUUACCAGGGUCAUCGAUACCUGGGGGUUUUCAAAAGCGGAAACUGAGAAACAUUUCAGUGCUUGCAUUCGAACUUUGUAGGACAGUGAGGUUAGUAGGUGCAACAGAGGAUUGAGCAUCA
B17: chr16:8843268:8843269:+_ENSMUSG00000022507_ENSMUST00000023150|perfect_dup|motif|central (ssRNA)
RNA: GGGAGUUCUACAGUCCGACGAUCACCAUGCAGAGCUAUGGCUUCCCGGAAGGGUUGCAAAUCAGUCUCUACAGAUGAGCGGGUUUCCGUUGAAGUAGCUCGGUUAGGGGACACUACAGUCAGUCUUGGGGGAGCUCUAGAGUUCAACAGAGGAUUGAGCAUCA
B18: chr7:54825262:54825263:-_ENSG00000132432_ENST00000352861|hu_hu|hu_hu_hu_mus_False|68_78 (ssRNA)
RNA: GGGAGUUCUACAGUCCGACGAUCCUGCCGGCUGGGCUCCACAAACUGCAUUACCUGCAUGACUGCCUACCCAACCGGGAUUGAGAGCGUAGAGACACGUAGCUCAGGAGAGAACCGAGCCCAACGGAACCGGAAGCUGGCAACCAACAGAGGAUUGAGCAUCA
B19: chr11:104189435:104189436:+_ENSMUSG00000018411_ENSMUST00000106992|mus_mus|FALSE|FALSE (ssRNA)
RNA: GGGAGUUCUACAGUCCGACGAUCGCCCUGGGAGCCUGAUCACAAACCCUGCUUGGCCAAGGAAGCAGACACUUCAUCGGCUAGUGUGGCAAGCUGUGGUGAGUCCACCAUGUCGAUGCUGCCCGUGGAAGACACAUUGCUGAGCAACAGAGGAUUGAGCAUCA
B20: 130618844_130618964_2048_3pUTR_ENSMUSG00000031256_ENSMUST00000033609|mouse|control|control (ssRNA)
RNA: GGGAGUUCUACAGUCCGACGAUCAAUGUCACAGAAAAUAUACACACUACGACAACAGAAUAAACUGCUUUCCUUUGGAGCAAUGGCGAUGUAAGACCUCCACCUGGCGCCAUCUGCCUCAUCCGGGGAGGUUCGGAUGCAGACCAACAGAGGAUUGAGCAUCA
B21: chr5:145543945:145543946:-_ENSG00000133706_ENST00000545646|hu_hu|hu_hu_hu_mus_True|8_48 (ssRNA)
RNA: GGGAGUUCUACAGUCCGACGAUCCUGAACGGCCAGUGGUGGGAAAUAAUCAAGCCAGUGCUCUGCUUCAGAAAACUUCACUAUGUCUUCAUCAGACAGCCCAAGGGAUUUCAUAAUGUCCCACUGGUAUUUAGAAGAUCCUGCCAACAGAGGAUUGAGCAUCA
B22: chr12:39756943:39756944:-_ENSG00000139116_ENST00000544797|hu_mus|hu_hu_hu_mus_False|28_78 (ssRNA)
RNA: GGGAGUUCUACAGUCCGACGAUCGGUUUGGCUGUUACCCCCAAGGGAAUCCUGCAAUAGUCUUGUUAGCUUAGAGUCUCUGUAAGGGACAUGGGUGGCUCUCUUGCUCUUGUCUCCCAAGGCGCUGAUUACAUUCCCAAGAGCCAACAGAGGAUUGAGCAUCA

This is one part of the list.

The target in this assay is T1, UNK ZnF1-3. Nature of the assay: nsRBNS (natural sequence RNA bind-n-seq); RBNS binding buffer (assumed for nsRBNS): 25 mM Tris pH 7.5, 150 mM KCl, 3 mM MgCl2, 0.01% Triton X-100, 500 ug/ml BSA, 20 U/ml SUPERase-In, 4 C; UNK is unkempt and MSI1 is Musashi-1; names of the RNAs are library labels; protein concentration not given here; high values mean tight binding.
The molecule B1 yielded a binding signal of 1.33 enrichment R.
Next, B2: 0.566 enrichment R.
Then B3, with 1.61 enrichment R; and B4, with 0.646 enrichment R; and B5, with 0.776 enrichment R.
Then B6, with 0.559 enrichment R; and B7, with 0.867 enrichment R; and B8, with 1.04 enrichment R.
Take B9: the binding signal came out at 1.29 enrichment R.
As to B10, the binding signal stood at 0.699 enrichment R.
The molecule B11 registered a binding signal of 0.633 enrichment R.
Molecule B12 yielded a binding signal of 2.22 enrichment R.
For B13, the binding signal came out at 0.855 enrichment R.
For B14, the binding signal was determined as 1.15 enrichment R.
Molecule B15 came in with a binding signal of 1.46 enrichment R.
B16 came in with a binding signal of 1.39 enrichment R.
Next, B17: 1.61 enrichment R.
Next, B18: 0.862 enrichment R.
Next, B19: 0.924 enrichment R; B20: 1.28 enrichment R.
With B21, the binding signal came to 1.08 enrichment R.
For B22, the binding signal amounted to 0.657 enrichment R.
